Results reported in PubChem BioAssay AID1345082 (National Center for Advancing Translational Sciences (NCATS), 2018).
Out of some 94,000 compounds screened, about 4,000 (4.3%) were called active. Inconclusive results, whose numbers are uncertain, are shown with a selection of clear calls. Calls follow the shape of the dose curve; as a rule, active = well fitted inhibition curve with a large enough effect; inconclusive = small, poorly fitted or top-dose-only effect; inactive = no such curve, though single readings can be large or run the other way. Potencies of inconclusive entries are doubtful fits and often do not repeat.

Test: Cytotoxic Profiling in NIH 3T3 Cell Line of Diverse Libraries Using Quantitative High-Throughput Screening; also: nearly all actives have a fitted effect of over 55% in size
Conditions: NIH 3T3 viability, CellTiter-Glo ATP luminescence, 48-72 h; activity change, negative = cytotoxicity: at 96.7 µM (top of the series) unless noted; series mostly up to 96.7 µM
In short: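 Cells were seeded at 400 per well, treated with pin-transferred compound, and kept 48 or 72 hr at 37 °C before CellTiter-Glo addition and luminescence imaging of cellular ATP.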
% is scaled to controls: 0 for no effect and ±100 for the full control effect; potency is read from the fitted curve at half-maximal effect; tags tell the direction and shape of the fitted curve.

Row | Structure (SMILES) | activity change, negative = cytotoxicity | Potency
1 | COCC(=O)N1CCN(C(=O)c2nc3cccnc3n(CCc3ccccc3)c2=O)CC1 | inactive: -6.54% | 
2 | COc1ccc(NC(=O)c2cc3sc(C)c(CN4CCCCC4)c3[nH]2)cc1OC |  | active: 39.8 µM
3 | Cc1noc(C)c1-c1cc2c(cc(C)n2C)c(-c2ccc(CO)cc2)n1 |  | active: 31.6 µM
4 | C=CCN1C[C@@H]2C[C@@H](C(=O)NC)N(C(=O)CCCCC)c3cccc(c32)[S+]1(=O)[O-] |  | inconclusive: 31.6 µM [inhibitor, partial curve, poor fit]
5 | COc1ccccc1CN1CC(c2noc(CC3CCCC3)n2)CC1=O (configuration not stated) |  | inconclusive: 44.7 µM [inhibitor, partial curve, poor fit]
6 | O[C@@H]1C[C@@H](c2nc(-c3ccc(OC(F)(F)F)cc3)no2)N(Cc2ncc[nH]2)C1 | inactive: -29% [at 174 µM] | 
7 | CN1C(=O)CCC2(CNC(=O)c3ccccc3F)CCC=C12 (configuration not stated) | inactive: -8.41% | 
8 | O=C(C[C@@H]1CCNC[C@@H]1Cc1cc(CC2CCCCC2)on1)N1CCOCC1 |  | inconclusive: 100 µM [inhibitor, single point]
9 | COc1cccc(NC(=O)N2CCC(c3cc(-c4cccc(C)c4)n[nH]3)CC2)c1 |  | active: 39.8 µM
10 | CC(C(=O)N1CCOc2ccc(CCC(=O)NCC3CC3)cc2C1)c1ccccc1 (configuration not stated) | inactive: -10.7% | 
11 | CC(C)NC(=O)C1CCCN(Cc2cccc(-c3ccsc3)c2)C1 (configuration not stated) |  | inconclusive: 44.7 µM [inhibitor, partial curve, poor fit]
12 | O=C(Cc1ccccc1)N1CCCN(c2cc(-c3ccc(Cl)cc3)[nH]n2)CC1 |  | inconclusive: 39.8 µM [inhibitor, partial curve, poor fit]
13 | C#CCNC[C@@H]1C=C(C)[C@H](Cc2nnc(-c3ccccc3F)o2)C[C@H]1C(C)C |  | inconclusive: 50.1 µM [inhibitor, partial curve, poor fit]
14 | CCc1ocnc1C(=O)N1CCC(C2CCN(Cc3cccc(F)c3F)CC2)C1 (configuration not stated) |  | inconclusive: 56.2 µM [inhibitor, partial curve, poor fit]
15 | CC1Oc2ccc(NC(=O)C3CC3)cc2CN(CCc2ccc(F)cc2)C1=O (configuration not stated) |  | inconclusive: 44.7 µM [inhibitor, partial curve, poor fit]
16 | O=C(NCc1ccccc1)c1nc2c(o1)CCN(Cc1ccc(F)c(Cl)c1)CC2 |  | active: 44.7 µM
17 | CNC(=O)CCn1ncc2cc(OCc3ccccc3-c3c(Cl)cccc3OC)ccc21 |  | inconclusive: 70.8 µM [inhibitor, single point]
18 | Cc1ccc(S(=O)(=O)Cc2noc([C@@H]3C[C@@H](O)CN3CC3CCCCC3)n2)cc1 |  | inconclusive: 89.1 µM [inhibitor, partial curve]
19 | CCNC(=O)OC1CCN(C(=O)NC2CCCC2)CC(=O)N(C)c2ccccc21 (configuration not stated) |  | inconclusive: 50.1 µM [inhibitor, partial curve, poor fit]
20 | CCOC(=O)C1c2c(OC)ccc3c2C(=CC(C)(C)CO3)CN1C1COC1 (configuration not stated) |  | inconclusive: 50.1 µM [inhibitor, partial curve, poor fit]
21 | O=C1COc2ccc(-c3ccsc3)nc2CN1Cc1ccccc1F |  | inconclusive: 79.4 µM [inhibitor, partial curve]
22 | CS(=O)(=O)c1ccc(CN2C[C@@H](F)[C@@H](OCc3nc4ccc(F)cc4[nH]3)C2)cc1 | inactive: -11.6% [at 138 µM] | 
23 | Cc1cn2nc(C(=O)N3CCC(C(=O)NCc4ccccn4)CC3)cc2c(=O)[nH]1 | inactive: -6.18% | 

Row | Structure (SMILES) | activity change, negative = cytotoxicity | Potency
24 | COc1cccc([S+](=O)([O-])N2CCc3nc(C(C)C)nc(-c4ccc(Cl)cc4)c3CC2)c1 | inactive: 1.46% | 
25 | O=C(NCc1cccs1)c1cn2cc(-c3cccc(C(F)(F)F)c3)sc2n1 | inactive: -20.3% | 
26 | COc1ccc(OCC2(C)COc3ccc(C(=O)NC4CCOCC4)cc3N2)cc1 (configuration not stated) |  | inconclusive: 56.2 µM [inhibitor, partial curve, poor fit]
27 | CCCc1cc(C(=O)N[C@H]2COC[C@H]2Cc2cc(C)no2)cs1 |  | inconclusive: 79.4 µM [inhibitor, partial curve, poor fit]
28 | C=CCNC(=O)C1CC(c2ccccc2F)=NO1 (configuration not stated) |  | inconclusive: 70.8 µM [inhibitor, single point]
29 | CC(C)CCN1CCn2c(nn(-c3ccc(C(F)(F)F)cc3)c2=O)C1 |  | inconclusive: 50.1 µM [inhibitor, partial curve, poor fit]
30 | Cc1nn2c(c1-c1ccccc1-c1ccccc1)N(C(=O)Cc1ccccn1)CCC2 | inactive: -3.54% [at 138 µM] | 
31 | COc1ccc(CNC(=O)C2CN(C)C(=O)N2)cc1 (configuration not stated) | inactive: 3.72% [at 138 µM] | 
32 | CC(C)N1CC(C(=O)NCc2ccc(F)c(F)c2)NC1=O (configuration not stated) | inactive: -25.4% [at 138 µM] | 
33 | c1ccc(NCC2CN(Cc3ccccn3)CC23CN(c2ccccc2)C3)cc1 (configuration not stated) |  | inconclusive: 79.4 µM [inhibitor, partial curve]
34 | O=C1NC2(CCN(C(=O)c3ccccc3F)C2)OCc2ccccc21 (configuration not stated) | inactive: -28.6% | 
35 | O=C(NC1CCCC1)c1nc2cccnc2n(Cc2ccccc2)c1=O |  | inconclusive: 50.1 µM [inhibitor, partial curve, poor fit]
36 | O=C(C1CCCC1)N1CC2(CCN(CC3CCCCC3)C2)Cc2ccccc21 (configuration not stated) |  | active: 31.6 µM
37 | Cc1ccc(-c2cccc(CN)c2)cc1Cl |  | active: 28.2 µM
38 | O=C(c1cnn(Cc2ccccc2)c1)N1CCn2nc(Cc3ccccc3)cc2C1 |  | inconclusive: 50.1 µM [inhibitor, partial curve, poor fit]
39 | COc1ccc(CN2Cc3[nH]cnc3C[C@H]2c2nc(Cc3ccccc3)no2)cc1 |  | inconclusive: 100 µM [inhibitor, partial curve]
40 | CC1Oc2ccc(NC(=O)c3ccccc3F)cc2CN(Cc2ccccc2F)C1=O (configuration not stated) |  | inconclusive: 50.1 µM [inhibitor, partial curve, poor fit]
41 | Cc1ccc(C(=O)N2CCC3(CC2)NC(=O)N(c2ccc(F)cc2)N3)c(C)c1 |  | inconclusive: 31.6 µM [inhibitor, partial curve, poor fit]
42 | N#Cc1ccc(C(=O)N2CCC[C@H]2c2nc(-c3ccccc3)no2)cc1 | inactive: -17.7% | 
43 | Oc1ccccc1CN1CCC(O)(c2csc(CN3CCc4ccccc4C3)n2)CC1 |  | inconclusive: 63.1 µM [inhibitor, partial curve, poor fit]
44 | Cc1ccccc1C(=O)N1CCN(C(=O)c2nc3cccnc3n(CCc3ccccc3)c2=O)CC1 | inactive: -28.9% | 
45 | CC1(CCCCN2CCOCC2)COc2ccc(C(=O)NCc3cccc(F)c3)cc2N1 (configuration not stated) |  | inconclusive: 70.8 µM [inhibitor, single point]
46 | COCC1CN(C2CCC2)CC12CCN(C(=O)c1ccco1)CC2 (configuration not stated) |  | inconclusive: 44.7 µM [inhibitor, partial curve, poor fit]

Row | Structure (SMILES) | activity change, negative = cytotoxicity | Potency
47 | O=C1Nc2ccccc2C2(CCN(C(=O)c3ccccc3F)C2)O1 (configuration not stated) | inactive: 4.89% [at 138 µM] | 
48 | CC(=O)NC1(C)CCN(Cc2cccc(Nc3ccccc3)c2)C1 (configuration not stated) |  | inconclusive: 100 µM [inhibitor, partial curve, poor fit]
49 | COCCNC(=O)[C@H]1C[C@H](Oc2ccccc2)CN1C(C)=O | inactive: -29.7% | 
50 | Cc1ccc(CC(=O)N2CCC3(C2)C(=O)N(C)c2ccccc23)cc1 (configuration not stated) |  | inconclusive: 70.8 µM [inhibitor, single point]
51 | CCc1nc2c(c(-c3ccc(Cl)cc3)n1)CN(C(=O)c1ccccc1F)CC2 |  | inconclusive: 10 µM [inhibitor, full curve, poor fit]
52 | CCCN1CCC(N2CCC(C(=O)Nc3cccc(-c4cccc(F)c4)c3)CC2)CC1 |  | active: 25.1 µM
53 | O=C(c1cccs1)N1CCC2(CC1)CN(Cc1ccccc1)CC2CO (configuration not stated) |  | inconclusive: 50.1 µM [inhibitor, partial curve, poor fit]
54 | CCOc1ccc(C(=O)NC2CCN(c3cc(-c4ccc(OC)cc4)[nH]n3)CC2)cc1OCC | inactive: -0.123% | 
55 | Cc1ccc(C(=O)N2CC3(C2)NC(=O)c2ccccc2O3)cc1 |  | inconclusive: 89.1 µM [inhibitor, partial curve, poor fit]
56 | Cc1noc(-c2ccc3c(c2)OCO3)c1C(=O)NCc1cccc(Cl)c1 |  | inconclusive: 44.7 µM [inhibitor, partial curve, poor fit]
57 | O=C(NC1CCNCC1)c1cc(C2CC2)nc2onc(C3CCCN3)c12 (configuration not stated) | inactive: 0.664% | 
58 | O=C1COc2ccc(-c3ccoc3)nc2CN1CCOc1ccccc1 |  | inconclusive: 63.1 µM [inhibitor, partial curve, poor fit]
59 | COc1ccc(C2CC(C(=O)NCc3ccccc3)CN(C(=O)C3CC3)C2)cc1OC (configuration not stated) |  | inconclusive: 22.4 µM [inhibitor, full curve]
60 | COC(=O)C1=C(C)N=C2SC=C(CC(=O)NCCC(C)C)N2C1c1ccccc1Cl (configuration not stated) |  | inconclusive: 70.8 µM [inhibitor, single point]
61 | Cc1nc(-c2ccncc2)ncc1C(C)NC(=O)C1=NN(C)C(=O)CC1 (configuration not stated) | inactive: -10.3% | 
62 | COc1ccc(CNc2ncnc3c2CN(C2CCC2)C(=O)CN3C)cc1 | inactive: -29.5% | 
63 | O=C(c1cncc(Br)c1)N1CCC(CCOc2ccccc2F)C1 (configuration not stated) |  | inconclusive: 44.7 µM [inhibitor, partial curve, poor fit]
64 | O=C(NC1CCCCC1)c1ccc2nnc(Cc3ccc(Cl)cc3)n2c1 |  | inconclusive: 44.7 µM [inhibitor, partial curve, poor fit]
65 | COc1cccc(CC(=O)N2CCCN(C)c3ccccc32)c1 | inactive: -5.34% | 
66 | O=C(C1CCCCN1Cc1ccc(-c2cccs2)cc1)N1CCC(c2ccccc2)CC1 (configuration not stated) |  | inconclusive: 39.8 µM [inhibitor, partial curve, poor fit]
67 | CC1(c2ccccc2)N(Cc2ccccc2)C(=O)OC12CCN(C(=O)C1CCOCC1)CC2 (configuration not stated) |  | inconclusive: 17.8 µM [inhibitor, full curve, poor fit]
